Experimental data taken from PubChem BioAssay AID1347120 (National Center for Advancing Translational Sciences (NCATS), 2019).
In all, about 390,000 compounds went through this assay and about 930 (0.24%) were called active. The inconclusive results got no clear call from the source; some entries with a clear call stand among them for comparison. The call rests on the fitted dose curve; in most records, active means well fitted activation curve with a large enough effect; inconclusive means small, poorly fitted or top-dose-only effect; inactive means no such curve, though single readings can be large or run the other way. Potencies of inconclusive entries are doubtful fits and often do not repeat.

Experiment: qHTS for Suppressors of FUS Proteinopathy: Primary screen using FUS-linked yeast assay; further: nearly all actives have a fitted effect of over 55% in size;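 on growth rescue (activation): plate controls were DMSO vehicle for no effect and reference control for full effect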
Settings: S. cerevisiae FUS-expressing, OD600, 24 h; Potency: growth rescue; growth rescue (activation): at 76.6 µM (top of the series)
Method in brief: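 Steps: raffinose overnight preculture; dilution to OD 0.005 in 2% galactose minimal medium; compound addition (concentration series); 24hr at 30C, 99% humidity; absorbance read at 600 nm.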
Potency means the concentration at half of the fitted maximal effect; tags describe the fitted curve by direction and shape.

Structure (SMILES)	Potency	growth rescue (activation)
Cc1ccc(OCC(=O)NC2=NCCS2)cc1	inconclusive: 12.6 µM [activator, partial curve, poor fit]	–
Cc1ccc(S(=O)(=O)N2C[C@@H](C)[C@]3(C2)[C@H](O)[C@H](OC(=O)NC2CC2)C[C@H]2C(=O)N(c4ccccc4)C(=O)[C@H]23)cc1	inconclusive: 25.1 µM [activator, single point]	–
O=C1CC(Nc2ccc(N3CCOCC3)cc2)C(=O)N1Cc1ccccc1 (stereo not drawn)	inconclusive: 8.91 µM [activator, partial curve, poor fit]	–
COc1ccc(CC(=O)Nc2nc3c(s2)CC(C)CC3)cc1 (stereo not drawn)	–	inactive: 31.9%
C=CCSc1nc2ccccc2n1C(=O)/C=C/c1cc(OC)c(OC)c(OC)c1	inconclusive: 25.1 µM [activator, single point]	–
Cc1ccc(C2=CC(=O)C[C@H](c3ccc(F)cc3)C2)cc1	–	inactive: 15.5%
O=C1CC(=O)CC(c2ccccc2Cl)C1	inconclusive: 7.94 µM [activator, partial curve]	–
COc1ccc(OCC(=O)Nc2ccc(-c3nc4cc(C)cc(C)c4o3)cc2)cc1	–	inactive: 4.24%
Cc1nc2sc(C(c3cccc(F)c3)N3CCC(C)CC3)c(O)n2n1 (stereo not drawn)	–	inconclusive: 65.2% [activator]
COc1cc2c(C)nc3c(cnn3-c3ccccc3)c2cc1OC	inconclusive: 50.1 µM [activator, single point]	–
Cc1ccc(S(=O)(=O)Nc2cccc(-c3ccc(N4CCC(C)CC4)nn3)c2)s1	inconclusive: 50.1 µM [activator, single point]	–
Cc1cc(Nc2ccccc2Cl)nc(-c2ccccc2O)n1	–	inactive: 17.8%
COC(=O)[C@@]12C[C@@H](CC(=O)N3CCSCC3)C(=O)N(Cc3ccc4c(c3)OCO4)C1=CCC(C)(C)C2	inconclusive: 17.8 µM [activator, single point]	–
Cc1ccc(Cn2nnc3c(=O)[nH]c(C4CCN(C(=O)Cc5ccccc5F)CC4)nc32)cc1	inconclusive: 39.8 µM [activator, single point]	–
CCOc1ccc(CNC(=O)c2ccc3oc(=O)n(Cc4ccccc4)c3c2)cc1	inconclusive: 15.8 µM [activator, partial curve, poor fit]	–
CC(C)c1c(C#N)c(N)nc(SCC(=O)c2cc3ccccc3oc2=O)c1C#N	inconclusive: 10 µM [activator, full curve, poor fit]	–
Cc1ccc(NC(=O)C(Cc2ccccc2)NS(=O)(=O)c2ccc3c(c2)c(=O)n(C)c(=O)n3C)c(C)c1 (stereo not drawn)	–	inactive: -17.3%
CC(OC(=O)c1ccccn1)C(=O)Nc1ccc2c(c1)OCCO2 (stereo not drawn)	–	inactive: -22.8%
C=CCOC(=O)C1=C[C@@H](c2csc3ccccc23)C[C@@H](OCc2ccc(CO)cc2)O1	inconclusive: 25.1 µM [activator, single point]	–
COc1ccc([C@H]2CC(=O)C=C(c3cc(Cl)ccc3OC)C2)cc1	inconclusive: 31.6 µM [activator, single point]	–

Structure (SMILES)	Potency	growth rescue (activation)
Cc1ccc(N2C(=O)[C@@H]3[C@H](C2=O)C2CCCN2[C@@H]3C(=O)c2ccccc2)cc1 (stereo partly drawn)	inconclusive: 6.31 µM [activator, partial curve, poor fit]	–
COc1ccccc1CNC(=O)c1c[nH]c2ccc(S(=O)(=O)Nc3cc(C)cc(C)c3)cc2c1=O	inconclusive: 22.4 µM [activator, single point]	–
Cc1nc(Nc2cnc(/C=C/c3cc(C(=O)Nc4cccc(C(F)(F)F)c4)ccc3C)cn2)cc(N2CCNCC2)n1	inconclusive: 50.1 µM [activator, single point]	–
Cc1cc(C)c(NC(=O)CSc2ccc(-c3ccccn3)nn2)c(C)c1	inactive	–
COc1cc(NC(C)C(=O)N2CC(C)OC(C)C2)cc(OC)c1 (stereo not drawn)	inconclusive: 7.94 µM [activator, full curve]	–
CC(C(=O)N1CCN(Cc2ccc3c(c2)OCO3)CC1)c1ccc([N+](=O)[O-])cc1 (stereo not drawn)	–	inactive: 18.7%
CC(C)C[C@@]12C(=O)N(c3cccc(Br)c3)C(=O)N1[C@H](c1ccc(Cl)cc1)[C@@H]1C(=O)N(C3CCCCC3)C(=O)[C@@H]12	inconclusive: 22.4 µM [activator, partial curve, poor fit]	–
CC(C)(C)OC(=O)N1CCC(N[C@@H](Cc2c[nH]c3ccccc23)C(=O)NCCc2c[nH]c3ccccc23)(C(=O)NC2CCCCC2)CC1	active: 20 µM	–
COc1ccc(Nc2nc(-c3cccnc3)cs2)c(OC)c1	–	inactive: 25%
O=C(O)C(c1ccccc1)N1C(=O)/C(=C\c2ccc(-c3ccccc3Cl)o2)SC1=S (stereo not drawn)	–	inactive: 33.5%
CC(C)=CCC[C@](C)(O[C@@H]1O[C@H](CO[C@@H]2O[C@H](CO)[C@@H](O)[C@H](O)[C@H]2O)[C@@H](O)[C@H](O)[C@H]1O)C1CC[C@]2(C)C1C(=O)CC1[C@@]3(C)CC[C@H](O[C@H]4O[C@@H](CO)[C@H](O)[C@@H](O)[C@@H]4O)C(C)(C)C3CC[C@]12C (stereo partly drawn)	inconclusive: 15.8 µM [activator, partial curve, poor fit]	–
Cn1c(N)c(C(=O)COC(=O)C2CCC(C(C)(C)C)CC2)c(=O)n(C)c1=O (stereo not drawn)	–	inactive: 19.3%
COc1ccc(C)cc1NC(=O)C(=O)NCC(c1cccnc1)N1CCc2ccccc21 (stereo not drawn)	inconclusive: 35.5 µM [activator, single point]	–
CCN(CC)S(=O)(=O)c1ccc(C)c(NC(=O)COC(=O)CNC(=O)c2ccc(C(C)(C)C)cc2)c1	inconclusive: 39.8 µM [activator, single point]	–
COC(=O)C1=C(C)N=C2SC(C)C(=O)N2C1c1cccc(F)c1 (stereo not drawn)	inconclusive: 50.1 µM [activator, single point]	–
CCOC(=O)c1cnc2cc(-c3ccc(OCC)cc3)nn2c1-c1ccccc1	–	inactive: 8.72%
NC(=O)c1ccc(Cn2c(C(=O)c3cc(Cl)c(N)c(Cl)c3)c3ccccc3[n+]2[O-])cc1	inconclusive: 35.5 µM [activator, single point]	–
CC(C)(C)S(=O)N1Cc2cc(C(=O)Nc3ccc(-c4ccccc4)cc3)nc(-c3cccc(-c4cc5ccccc5o4)c3)c2[C@@H]1CCO (stereo partly drawn)	inconclusive: 31.6 µM [activator, single point]	–
CCOC(=O)C1=C(C)N=C2SC(C)C(=O)N2C1c1ccc(OC(C)=O)c(OC)c1 (stereo not drawn)	inconclusive: 50.1 µM [activator, single point]	–
CCN1C(=O)[C@H]2[C@@H](c3ccc(-c4ccc(OC)cc4)c(OC)c3)N[C@@](Cc3ccccc3)(C(=O)OC)[C@H]2C1=O	inconclusive: 12.6 µM [activator, partial curve, poor fit]	–

Structure (SMILES)	Potency	growth rescue (activation)
CCCN1CC(=O)N2C(c3ccccc3)c3[nH]c4ccccc4c3C[C@H]2C1=O (stereo partly drawn)	inconclusive: 25.1 µM [activator, single point]	–
CCc1ccc(NC(=O)CC2C(=O)N(c3cccc(OC)c3)C(=O)N2Cc2ccc(F)cc2)cc1 (stereo not drawn)	–	inactive: 42.8%
O=S(=O)(c1ccc(N2CC=C(c3ccccc3)CC2)nc1)N1CCCC1	inconclusive: 31.6 µM [activator, single point]	–
Cc1cccc(OCC2=N/C(=C\N(C)C)C(=O)O2)c1	inconclusive: 7.08 µM [activator, partial curve, poor fit]	–
Cc1ccc(-c2c3c([nH]c(=S)c2C#N)CCCC3)o1	inconclusive: 14.1 µM [activator, partial curve, poor fit]	–
CCCNC(=O)c1ccc2c(c1)N(Cc1cccc(C)c1)C(=O)c1ccccc1S2	inconclusive: 50.1 µM [activator, single point]	–
Cc1c(Cl)cccc1NC(=O)CSc1ccc(-c2cccnc2)nn1	inconclusive: 25.1 µM [activator, partial curve, poor fit]	–
Cc1ccc(CN2C(=O)C[C@@H](NC(=O)OCC3c4ccccc4-c4ccccc43)C/C=C\C2c2ccc(C)cc2)cc1 (stereo partly drawn)	inconclusive: 31.6 µM [activator, single point]	–
Nc1cc(=O)[nH]c(SCC(=O)Nc2ccc([N+](=O)[O-])cc2)n1	inconclusive: 14.1 µM [activator, partial curve, poor fit]	–
Cc1c(C(=O)NCc2ccc(C(C)C)cc2)sc(=O)n1Cc1ccc(S(=O)(=O)N(C)C)cc1	inconclusive: 25.1 µM [activator, partial curve, poor fit]	–
Cc1ccc(NC(=O)COc2ccc(/C=N\NC(=O)c3cccnc3)cc2)cc1C	inconclusive: 35.5 µM [activator, single point]	–
CCCCCC(=O)Nc1nc(C)c(-c2csc(Nc3cc(Cl)ccc3OC)n2)s1	–	inactive: 37.6%
O=C(CC1N=C2c3ccccc3N=C(SCC(=O)Nc3cccc(C(F)(F)F)c3)N2C1=O)NCc1cccs1 (stereo not drawn)	inconclusive: 31.6 µM [activator, partial curve, poor fit]	–
CCOC(=O)CC(Nc1nc(N2CCOCC2)nc(N2CCOCC2)n1)c1ccccc1Cl (stereo not drawn)	inconclusive: 3.55 µM [activator, partial curve, poor fit]	–
O=C(NCC(=O)N1CCN(C/C=C/c2ccccc2)CC1)c1ccc(Br)cc1	–	inactive: 28.9%
CCS(=O)(=O)Nc1cccc(-c2cc(-c3ccccc3)c3cc(C)ccc3n2)c1	inconclusive: 14.1 µM [activator, partial curve, poor fit]	–
CCc1nnc(NC(=O)CN2CCN(c3nc(-c4ccccc4)cs3)CC2)s1	inconclusive: 39.8 µM [activator, partial curve, poor fit]	–
Cc1ccc2nc(-c3ccco3)c(Cc3cccc(F)c3)n2c1	–	inactive: 7.48%
